# Assay results taken from the supplement of paper PMC3334620.
# The full ranking holds about 33,000 sequences; the median of “E-score (-0.5 to 0.5)” is about -0.054, and the highest 2% start at about 0.35. Some of the results follow.
# Target: T1, Stb5 (UniProt P38699)
# T1 sequence: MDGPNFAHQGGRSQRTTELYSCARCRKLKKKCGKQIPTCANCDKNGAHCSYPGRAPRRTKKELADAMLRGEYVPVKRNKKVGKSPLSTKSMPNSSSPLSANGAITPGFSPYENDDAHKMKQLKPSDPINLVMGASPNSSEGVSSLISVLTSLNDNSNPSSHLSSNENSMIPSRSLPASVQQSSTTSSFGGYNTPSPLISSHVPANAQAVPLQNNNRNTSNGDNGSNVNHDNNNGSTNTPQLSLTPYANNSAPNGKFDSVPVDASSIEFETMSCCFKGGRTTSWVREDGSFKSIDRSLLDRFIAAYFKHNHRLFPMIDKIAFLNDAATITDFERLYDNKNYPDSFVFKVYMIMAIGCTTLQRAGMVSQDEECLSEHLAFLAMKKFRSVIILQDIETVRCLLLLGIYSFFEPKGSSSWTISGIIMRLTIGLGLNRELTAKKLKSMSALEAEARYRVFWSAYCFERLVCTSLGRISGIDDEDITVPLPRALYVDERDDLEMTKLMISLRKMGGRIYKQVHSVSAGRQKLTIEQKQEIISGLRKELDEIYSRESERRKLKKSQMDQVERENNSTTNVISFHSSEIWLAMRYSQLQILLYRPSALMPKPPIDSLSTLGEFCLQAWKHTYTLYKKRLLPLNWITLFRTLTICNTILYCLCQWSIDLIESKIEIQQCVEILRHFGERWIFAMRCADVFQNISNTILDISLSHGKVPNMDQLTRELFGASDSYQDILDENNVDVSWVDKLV
# Assay: PBM E-score (8-mer binding enrichment) (E-score (-0.5 to 0.5)); higher = stronger / more preferred TF binding; most listed sequences are background and not binding sites
# Settings: protein concentration: 200 nM; construct: GST-full length
# How it was run: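 Detection of bound protein used fluorescent anti-GST, with scans normalised by masliner. The proteins were GST-tagged yeast transcription factors applied at about 100-200 nM to universal all-10-mer Agilent arrays made double-stranded by primer extension. Each ungapped eight-base word, pooled with its reverse complement, was scored with an E-score from the Universal PBM Analysis Suite.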
row,Sequence,PBM E-score
1,ATCCTTTC,-0.195
2,GGCCTAAA,0.116
3,GACGTCGA,-0.173
4,ACTGTCGA,-0.276
5,ACCAGTGG,-0.224
6,ACAGACAG,-0.0684
7,GGCGGGGA,0.366
8,ACAGTGGT,-0.291
9,CCGATCTA,0.237
10,CTACCTGC,-0.0261
11,CACGACCA,-0.246
12,ATCCGAGA,0.0535
13,AGGTATAG,-0.135
14,AGCCATCC,-0.141
15,CTGAACAC,-0.107
16,GCGTAGGA,0.159
17,CACAGCCA,-0.152
18,AGCTGGGA,-0.161
19,CGCCCAGC,-0.0456
20,GAGTACCC,-0.0947
21,AGGCCGTC,0.301
22,CATGCCTA,-0.161
23,CCCTCGCC,-0.25
24,TTGCCAAA,0.015
25,TACAAACA,-0.00132

row,Sequence,PBM E-score
1,AACCCTGA,0.0249
2,CCGGCACC,0.278
3,CACGCGCG,-0.0121
4,CTTATGCC,0.0514
5,GCAAGGGC,-0.149
6,AACGCCAG,-0.0687
7,ATCGATTG,-0.164
8,CATCCCGG,0.134
9,ACCTGTAG,-0.105
10,ACAAGAAG,-0.047
11,ATAAGAGG,-0.0468
12,GTGGCAGA,-0.223
13,ATGTGCCG,0.2
14,CCGCTTAC,0.146
15,GAACATGA,-0.0676
16,CGAAATTA,-0.0454
17,ATTGATCC,0.215
18,TAACGTTA,0.142
19,TCGCGCGA,-0.101
20,AGAACTAG,-0.23
21,CGAATACC,0.0579
22,AGATCCAA,-0.171
23,CAAGTGCG,0.0372
24,GGGTCGAA,-0.0152
25,ATACCGGA,0.322

row,Sequence,PBM E-score
1,CGCAGAAG,-0.12
2,AGATCTCC,-0.0161
3,AGGCCGGG,0.298
4,CTATCGCA,0.117
5,GCCTTGTA,-0.0365
6,CCCAATCA,-0.236
7,CGTAGGTA,0.0752
8,ATGTGACA,-0.162
9,ACGACTGC,-0.266
10,AAACTCAC,-0.172
11,ATAGATTG,-0.0206
12,CGCCAAAG,0.118
13,GAGCCACA,-0.128
14,CTGTGCTA,-0.192
15,ATCCGACC,0.262
16,ATCAGTAG,-0.249
17,AGGTAAAG,0.0312
18,AATTACTG,-0.159
19,ACTGCGCA,-0.0257
20,CATGGACC,-0.00439
21,ACAGTTGA,0.0147
22,ACCCCATC,0.13
23,CCCATAAC,0.0259
24,AGTTTATA,0.229
25,ATGGCGTC,0.0211

row,Sequence,PBM E-score
1,AAACGTGC,-0.208
2,CGAATTAA,-0.0809
3,AGCTTCCG,-0.0198
4,CCATGTCG,-0.0505
5,CCGGACCA,0.229
6,ACAAGCCC,0.0337
7,ACTTGCGA,-0.0582
8,AAGTATAT,0.0333
9,GCCACCGA,0.139
10,AGACCGAC,0.385
11,ACGTTATC,-0.021
12,AGCACTGA,-0.184
13,AACAGCCT,-0.264
14,ATCCTGAC,-0.216
15,CCCAGGGA,-0.269
16,TGGAGTAA,-0.0739
17,CGAAATCC,0.077
18,CGCTAACA,0.139
19,ACATATGC,-0.0869
20,CGAGTATA,-0.113
21,TCTTGCAA,-0.0179
22,ATATTTTA,0.0467
23,GTTGCGCA,-0.0873
24,TGTCCAAA,-0.0683
25,AAGACCTT,-0.073

row,Sequence,PBM E-score
1,GTGTCCGA,0.231
2,ATTCCGTC,0.141
3,CACCGGGC,0.375
4,AACCCACT,-0.00366
5,GGGGGTGA,-0.123
6,AGGAGGAT,-0.271
7,AAGCCTAC,-0.298
8,GCTTGTCC,-0.0942
9,ACCAGCCT,-0.152
10,CCAGCGAG,-0.174
11,CCCGCTTC,0.19
12,ATCAATTC,-0.0784
13,GTTAAAAA,0.00418
14,CTTGGAAA,-0.134
15,ACAGGCAT,-0.218
16,AGGATCGA,-0.00784
17,AGCCGGAG,0.279
18,CCTGAACC,-0.333
19,GTATACAC,0.147
20,CCATGTCA,-0.116
21,GGCAGCCC,-0.0306
22,GAAGGCAC,-0.0547
23,AGCAAGCG,-0.028
24,CCTTGGAC,-0.138
25,GGGGACAC,-0.00426

row,Sequence,PBM E-score
1,CTTAGTGC,-0.0671
2,AGACTCGG,-0.0398
3,ACTCCTAC,-0.068
4,GCATAAGC,0.0731
5,CTGCCCAC,-0.256
6,ATACCAAG,0.0722
7,ACCACTCT,-0.243
8,ACGTCGAC,-0.0741
9,CAACATTA,-0.0568
10,TGCGAGAA,-0.253
11,CCTACTAA,-0.0938
12,CGAGCCCG,0.0887
13,ACTTATCG,0.0822
14,CCGGTTCC,0.222
15,CCGTGGAA,0.215
16,CCTGGCAG,-0.283
17,CCCTAACC,-0.0852
18,ACTGCAAA,-0.271
19,TATGCTGA,-0.0365
20,ATGAACCA,-0.252
21,ATCAGCAT,-0.0274
22,AAAAGTTT,-0.05
23,AAGTGGGC,-0.196
24,ACGAGGAG,-0.41
25,CGACCTCA,-0.119

row,Sequence,PBM E-score
1,CCCTACGA,-0.21
2,CATGTGTC,-0.152
3,CCCAGAGA,-0.175
4,AATATACC,0.147
5,ACCATACC,-0.0642
6,GACAGTCC,-0.0292
7,ACGACAAG,0.0071
8,AAAGTGAC,-0.0657
9,CCTAGTCA,-0.28
10,CTTCGAGA,-0.132
11,GTCAAAAA,-0.136
12,GCTTGGCA,-0.35
13,TAAATATA,0.0785
14,ACTGGCCT,-0.108
15,CGCTGATA,0.26
16,ACGGCTGG,-0.108
17,CAGAGTAG,-0.166
18,ATGACATG,-0.135
19,AGGTACGG,0.239
20,ACAGGCGG,0.293
21,CACTTGTA,-0.0461
22,ACTTTTCG,-0.0161
